Test system: HIV-1 NL4-3 RLuc Δenv virus pseudotyped with NL4-3 Env
Experiment: Inhibition of HIV-1 early events (single-round infection)
Conditions: Human immunodeficiency virus 1, NL43, MT2, 48 h, read-out: EC50 for inhibition of HIV-1 early events

`COc1cc(C)c(/C=C/C2NCCc3cc(OCc4ccccc4)c(OC)cc32)cc1OCc1ccccc1` (stereo not shown) [PAV-117] gave an EC50 of 930 nM.

Source: article PMC7925099, “Identification of an Antiretroviral Small Molecule That Appears To Be a Host-Targeting Inhibitor of HIV-1 Assembly” (Journal of Virology, 2021)
